Source: the supplement of paper PMC4604168 (melanoma cell lines)
Some of the results follow. Repeats are few or missing, and single values can be far off.

Legend:
Test in all cases: cell count relative to DMSO control; melanoma cells; higher = more viable cells
Details in all cases: library dose: low library concentration; 72 h
WM115 = tested on: WM115
WM1716 = tested on: WM1716
WM1745 = tested on: WM1745
WM3526 = tested on: WM3526
WM3619 = tested on: WM3619
WM451Lu = tested on: WM451Lu
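Also: cell number obtained by counting DAPI-stained nuclei in high-throughput microscope images with image analysis software, screen run in 1,536-well plates.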

Compound | cell count (WM115) [%] | cell count (WM1716) [%] | cell count (WM1745) [%] | cell count (WM3526) [%] | cell count (WM3619) [%] | cell count (WM451Lu) [%]
CCc1ccc(CCOc2ccc(CC3SC(=O)NC3=O)cc2)nc1 (stereo not given) [pioglitazone] + O=c1cc(-c2cccc3c2Sc2ccccc2S3)oc(N2CCOCC2)c1 [KU55933] (first compound 2 µM, partner dose 1 µM) | 95.8 | 103 | 99.1 | 103 | 97.5 | 109
CC(C)(C)c1cnc(CSc2cnc(NC(=O)C3CCNCC3)s2)o1 + CN(NC(=O)CC(=O)NN(C)C(=S)c1ccccc1)C(=S)c1ccccc1 [STA4783] (first compound 0.01 µM, partner dose 0.006 µM) | 77.3 | 69.5 | 48.5 | 109 | 44.7 | 98.8
CC(C)(C)c1cnc(CSc2cnc(NC(=O)C3CCNCC3)s2)o1 + O=S(=O)(c1ccccc1)N(CC(F)(F)F)c1ccc(C(O)(C(F)(F)F)C(F)(F)F)cc1 [T0901317] (first compound 0.01 µM, partner dose 1.4 µM) | 88 | 83.5 | 96.1 | 85.6 | 103 | 96.3
CC(C)(C)c1cnc(CSc2cnc(NC(=O)C3CCNCC3)s2)o1 + OCCn1cc(-c2cnc3nnn(Cc4ccc5ncccc5c4)c3n2)cn1 [PF04217903] (first compound 0.01 µM, partner dose 1 µM) | 105 | 98.3 | 94.2 | 96.5 | 101 | 103
CCc1ccc(CCOc2ccc(CC3SC(=O)NC3=O)cc2)nc1 (stereo not given) [pioglitazone] + CCN(CC)CCCCNc1ncc2cc(-c3cc(OC)cc(OC)c3)c(NC(=O)NC(C)(C)C)nc2n1 [PD173074] (first compound 2 µM, partner dose 0.1 µM) | 103 | 107 | 89 | 100 | 112 | 100
